# Laboratory results taken from the supplement of paper PMC4604168 (melanoma cell lines).
# This is one part of the list. Single values are uncertain, as repeats are few or missing.
# Tested on: SkMel2
# Assay: cell count relative to DMSO control; melanoma cells; higher = more viable cells
# Details: library dose: low library concentration; 72 h; first compound 0.4 µM
# 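Note: cell number obtained by counting DAPI-stained nuclei in high-throughput microscope images with image analysis software, screen run in 1,536-well plates.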
row,SMILES,cell count [%]
1,Cn1sc(=O)n(Cc2ccccc2)c1=O + c1cc(-c2cnn3cc(-c4ccc(OCCN5CCCCC5)cc4)cnc23)ccn1 [Dorsomorphin] (partner dose 0.4 µM),111
2,C[C@@H](N)c1ccc(C(=O)Nc2ccnc3[nH]ccc23)cc1 + Oc1nc(-c2ccc(C(F)(F)F)cc2)nc2c1CSCC2 [XAV939] (partner dose 2 µM),92.8
3,CCCCCCCCCCCCCCCCCCOP(=O)([O-])OC1CC[N+](C)(C)CC1 [Perifosine] + Cn1cc(/C=C2\C(=O)Nc3cccnc32)c2ccccc21 [GW441756] (partner dose 0.4 µM),113
4,C[C@@H](N)c1ccc(C(=O)Nc2ccnc3[nH]ccc23)cc1 + CN(NC(=O)CC(=O)NN(C)C(=S)c1ccccc1)C(=S)c1ccccc1 [STA4783] (partner dose 0.006 µM),88.6
5,C[C@@H](N)c1ccc(C(=O)Nc2ccnc3[nH]ccc23)cc1 + COc1cc2ncnc(Nc3ccc(Oc4ccccc4)cc3)c2cc1OC [SrcI1] (partner dose 2 µM),102
6,Cn1sc(=O)n(Cc2ccccc2)c1=O + N#Cc1c(O)c2c(-c3ccc(-c4ccccc4O)cc3)csc2[nH]c1=O [A769662] (partner dose 2 µM),95.4
7,CCCCCCCCCCCCCCCCCCOP(=O)([O-])OC1CC[N+](C)(C)CC1 [Perifosine] + c1cc(-c2cnn3cc(-c4ccc(OCCN5CCCCC5)cc4)cnc23)ccn1 [Dorsomorphin] (partner dose 0.4 µM),105
8,Cn1sc(=O)n(Cc2ccccc2)c1=O + O=c1cc(-c2cccc3c2Sc2ccccc2S3)oc(N2CCOCC2)c1 [KU55933] (partner dose 1 µM),95.8
9,C[C@@H](N)c1ccc(C(=O)Nc2ccnc3[nH]ccc23)cc1 + COc1cc2c(Oc3ccc4[nH]c(C)cc4c3F)ncnc2cc1OCCCN1CCCC1 [cediranib] (partner dose 0.4 µM),108
10,C[C@@H](N)c1ccc(C(=O)Nc2ccnc3[nH]ccc23)cc1 + COc1ccc(-c2ccc3c(N4CCOCC4)nc(N4C[C@@H](C)O[C@@H](C)C4)nc3n2)cc1CO [KU0063794] (partner dose 0.02 µM),104
11,C[C@@H](N)c1ccc(C(=O)Nc2ccnc3[nH]ccc23)cc1 + COC(=O)c1sccc1S(=O)(=O)Nc1ccc(Nc2ccccc2)cc1OC [GSK0660] (partner dose 1 µM),109
12,C[C@@H](N)c1ccc(C(=O)Nc2ccnc3[nH]ccc23)cc1 + COc1cc(Nc2ncc(F)c(Nc3ccc4c(n3)NC(=O)C(C)(C)O4)n2)cc(OC)c1OC [Tamatinib] (partner dose 0.4 µM),91.3
13,Cn1sc(=O)n(Cc2ccccc2)c1=O + CCc1ccc(CCOc2ccc(CC3SC(=O)NC3=O)cc2)nc1 [pioglitazone] (partner dose 2 µM),106
14,Cn1sc(=O)n(Cc2ccccc2)c1=O + O=C(O)C(=O)Nc1sc2c(c1C(=O)O)CCNC2 [TCS401] (partner dose 1.66667 µM),99.7
15,CCCCCCCCCCCCCCCCCCOP(=O)([O-])OC1CC[N+](C)(C)CC1 [Perifosine] + O=S(=O)(c1ccccc1)N(CC(F)(F)F)c1ccc(C(O)(C(F)(F)F)C(F)(F)F)cc1 [T0901317] (partner dose 1.4 µM),95.7
16,CCCCCCCCCCCCCCCCCCOP(=O)([O-])OC1CC[N+](C)(C)CC1 [Perifosine] + N#Cc1c(O)c2c(-c3ccc(-c4ccccc4O)cc3)csc2[nH]c1=O [A769662] (partner dose 2 µM),105
17,C[C@@H](N)c1ccc(C(=O)Nc2ccnc3[nH]ccc23)cc1 + C[C@@H]1CCN(C(=O)CC#N)C[C@@H]1N(C)c1ncnc2[nH]ccc12 [CP690550] (partner dose 1 µM),105
18,Cn1sc(=O)n(Cc2ccccc2)c1=O + Oc1nc(-c2ccc(C(F)(F)F)cc2)nc2c1CSCC2 [XAV939] (partner dose 2 µM),105
19,CCCCCCCCCCCCCCCCCCOP(=O)([O-])OC1CC[N+](C)(C)CC1 [Perifosine] + CC(C)CCN1c2nc(Nc3cc(F)c(O)c(F)c3)ncc2N(C)C(=O)C1C [BID1870] (partner dose 0.2 µM),103
20,Cn1sc(=O)n(Cc2ccccc2)c1=O + COc1cc2ncnc(Nc3ccc(Oc4ccccc4)cc3)c2cc1OC [SrcI1] (partner dose 2 µM),107
